Assay results as given in PubChem BioAssay AID1508624 (National Center for Advancing Translational Sciences (NCATS), 2021).
Screen size: about 48,000 compounds; about 120 (0.25%) were called active. Roughly 4% stayed inconclusive and do not appear here. Calls come from the whole dose curve; as a rule, active = well fitted activation curve with a large enough effect; inconclusive = small, poorly fitted or top-dose-only effect, or another doubt; inactive = no such curve, though single readings can be large or run the other way. This is one part of the list.

Assay: Primary qHTS for Identification of Small Molecule Activators of Huntingtin-Antisense Promoter Activity; note: nearly all actives have a fitted effect of over 55% in size
Settings: HEK293 HTT-AS promoter firefly luciferase reporter (activity 0% = vehicle and -100% = no light), 24 h; series mostly up to 57.5 µM; activity change, positive = activation: at the top concentration
In short: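 Luminescence was read after Dual-Glo reagent and a 10 min room-temperature incubation. Values were normalized to vehicle (0% activity) and zero RLU (-100% activity). Reporter HEK293 cells had been exposed to compounds (up to 57.5 uM final) for 24 h.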

Activity change, positive = activation, inactive:
Nc1nc(=O)n([C@H]2CSC(CO)O2)cc1F (stereo partly specified) -8.34%
CCOc1ccc(-c2nnc(SCC(=O)NCCc3ccccc3)nc2-c2ccc(OCC)cc2)cc1 -0.362%
COc1cccc(CNc2nc3c(-c4cccc(C)c4)nnn3c3ccccc23)c1 13.2%
CC(=O)Nc1ccc(NC(=O)CCC(=O)c2ccc(C)cc2)cc1 -0.398%
O=C(OCc1cc(=O)n2nc(-c3cccs3)sc2n1)c1ccccc1Br 5.81%
Cc1cc(NC(=O)C(C)(C)Oc2ccc(Cl)cc2)cc(-c2nc3ncccc3o2)c1O -7.63%
Cc1cc(C)cc(C(=O)Nc2nnc3n2CCS3)c1 2.3%
CCOC(=O)c1ccc(NC(=O)CSc2nccn2Cc2ccc(OC)cc2)cc1 -27.3%
O=C(CSc1ncc2c(n1)-c1cc(Cl)ccc1N(Cc1ccccc1F)S2(=O)=O)Nc1cccc(C(F)(F)F)c1 -16.5%
CCCCCN1C(C(=O)c2ccccc2)=C(NC(C)=O)c2ccccc2S1(=O)=O -36.9%
COC(=O)c1cc(NC(=O)c2ccc3c(c2)N(Cc2cccc(Cl)c2)C(=O)c2ccccc2S3=O)cc(C(=O)OC)c1 (stereo unspecified) -14.5%
CC(=O)c1cccc(NC(=O)c2c(C)nn(-c3ccc(F)cc3)c2-n2cccc2)c1 -28.3%
Cc1cc2ccccc2n2c(SCC(=O)Nc3cccc(C(F)(F)F)c3)nnc12 -8.46%
CCCn1c2ccccc2c2cnn(CC(=O)Nc3ccc(C)cc3Br)c(=O)c21 -16.3%
CNc1oc(-c2ccc(COc3ccc(C)cc3)o2)nc1C#N -11%
COc1ccc(OCc2nc3c4c(-c5ccc(OC)cc5)c(-c5ccc(OC)cc5)oc4ncn3n2)cc1 -6.14%
CCOc1ccccc1NC(=O)c1cnc(N2CCOCC2)c2ccccc12 -8.1%
COc1ccc(C)cc1NC(=O)CCNS(=O)(=O)c1cccc2nonc12 0.415%
CCc1ccc(NC(=O)c2sc3nc(C)c(Cl)c(C)c3c2NC(=O)c2ccccc2)cc1 6.76%
Cc1cccc(CNC(=O)c2sc3ncnc(N(C)C4CCCCC4)c3c2C)c1 -2.55%
Cc1nn(-c2ccccc2)c2nc(C3CC3)cc(C(=O)NCc3ccccc3Cl)c12 -9.44%
CCN(CC)c1nc(-c2ccccc2Cl)c2cc(Br)ccc2n1 -5.35%
CC(C)Nc1ccc(-c2nc(-c3ccccn3)no2)cc1[N+](=O)[O-] 9.95%
Cc1cc(Cl)ccc1OCC(=O)N(Cc1ccc(N(C)C)cc1)CC1CCCO1 (stereo unspecified) -36.2%
COc1ccc(CCNC(=O)c2cc(S(=O)(=O)N3CCCC(C)C3)cn2C)cc1OC (stereo unspecified) -28.3%
O=C(O)c1ccc2c(c1)N(Cc1ccc(F)cc1Cl)C(=O)c1ccccc1S2 -8.75%
COc1ccc(NC(=O)CCS(=O)(=O)c2nc(-c3ccc4c(c3)OCO4)cc(C(F)(F)F)n2)c(OC)c1 -12.5%
CC(CNC(=O)CCCn1c(=O)c2cccn2c2ccccc21)c1ccccc1 (stereo unspecified) -25%
CCN(C(=O)c1cnc(N2CCOCC2)c2ccccc12)c1cc(C)ccc1C -14.8%
CC(C)N(Cc1ccccc1)C(=O)CN1C(=O)COc2ccc(S(=O)(=O)N3CCCCCC3)cc21 -29.1%
O=C(c1ccc2c(c1)N(Cc1ccccc1)C(=O)c1ccccc1S2=O)N1CCC(Cc2ccccc2)CC1 (stereo unspecified) -40.2%
Cc1ccc2c(c1)c(=O)c(S(=O)(=O)c1ccc(C)c(C)c1)cn2CC(=O)Nc1ccccc1 -10.6%
CCc1cccc(C)c1NC(=O)C1=C(C)C(=O)OC12CCC(C)CC2 (stereo unspecified) -6.22%
CCCOc1ccc(C2=NC(c3ccc(F)cc3)=Nc3ccc(OC)cc3N2)cc1 -3.75%
CC[N+](CC)(CCNC(=O)C(=O)NCC[N+](CC)(CC)Cc1ccccc1Cl)Cc1ccccc1Cl -1.79%
COc1ccccc1Nc1ncc(C(=O)Nc2ccc(OC)c(OC)c2)c2ccccc12 -10%
Nc1nccc(-c2ccc3noc(-c4ccc(Cl)cc4)c3c2)n1 -24%
COc1ccccc1CNC(=O)c1cnc2sc(N3CCOCC3)nn2c1=O -6.07%
COc1ccc(N2CCN(C(=O)Cn3nc(Cc4cccnc4)c4ccccc4c3=O)CC2)cc1 -33.5%
COc1ccc(NC(=O)NCC2CCN(Cc3ccccc3F)CC2)c(OC)c1 7.98%
COC(=O)c1cc(S(=O)(=O)N2CCN(c3ccc(F)cc3)CC2)cn1C -10.6%
COc1ccccc1CNC(=O)c1ccc2c(c1)CCN2S(=O)(=O)c1ccc(Cl)cc1 3.23%
COc1ccc2nc(N(Cc3cccnc3)C(=O)COc3ccccc3)sc2c1 23.7%
Cn1cc(C(=O)NCCc2ccc(Cl)cc2)c(=O)c2cc(S(=O)(=O)N3CCCCC3)ccc21 -7.45%
COC(=O)c1ccc(Cn2nnc3c(=O)[nH]c(C4CCCN(S(=O)(=O)c5ccccc5)C4)nc32)cc1 (stereo unspecified) 14.2%
O=S(=O)(c1ccc(-c2cnc(C3CC3)o2)cc1)N1CCN(c2cccc(Cl)c2)CC1 4.59%
CCOc1ccccc1C(=O)Nc1cc(-c2ccc(C)cc2)no1 39.7%
Cc1cccc(S(=O)Cc2ccc(C(=O)NC3CCCCCC3)o2)c1 (stereo unspecified) -11.5%
Cc1ccc(C(=O)Nc2ccc(C(=O)OCc3cc(=O)n4c5c(sc4n3)CCCC5)cc2)cc1 -9.92%
Cc1c(-c2ccccc2)n(-c2ccccc2O)c2nc3c(c(=O)n(C)c(=O)n3C)n12 -44.2%
COc1cc(OC)c(NC(=O)N2CCN3CCCCC3C2)cc1Cl (stereo unspecified) 15.5%
CC(C)(C)c1cc(C(C)(C)C)c2oc(=O)c(-c3nc4ccc(C(=O)O)cc4[nH]3)cc2c1 -23.9%
CCOC(=O)c1ccccc1NC(=O)CSc1cc(C)[nH]c(=O)n1 -9.3%
COc1ccc(Cl)cc1NC(=O)CCN1C(=O)c2ccccc2Sc2ncccc21 -20.5%
CC(=O)N1CCc2cc(S(=O)(=O)NC(CC(C)C)C(=O)NCCc3ccccc3)ccc21 (stereo unspecified) 15%
CC(C)C(=O)N1c2nc(C(C)C)nn2C2(CCCCC2)[C@@H]2CCCC[C@@H]21 -12.4%
Cc1cc(C)c2c(=O)cc(CSc3nnc(-c4ccccc4)n3C)[nH]c2c1 -23%
Cc1ccc(Nc2nc3ccccc3c3nnc(C)n23)cc1Cl -24.5%
COc1cc(-c2nnc(SCC(=O)Oc3ccccc3)o2)cc(OC)c1OC -5.6%
COc1ccc(OC)c(Nc2ncc3c(n2)CCN(Cc2cc(OC)c(OC)c(OC)c2)C3)c1 -11.1%
CCCC(CCC)C(=O)Nc1cccc(-c2nc3cccnc3s2)c1 4.29%
